Reference: PubChem BioAssay AID1347165 (National Center for Advancing Translational Sciences (NCATS), 2019)
About 5,700 (2.6%) of roughly 220,000 compounds were called active. Inconclusive means that the source gave no clear call. Such entries were picked first, then a sample of the others. Calls follow the shape of the dose curve; as a rule, active = well fitted inhibition curve with a large enough effect; inconclusive = small, poorly fitted or top-dose-only effect; inactive = no such curve, though single readings can be large or run the other way. Where the call is inconclusive, the potency comes from a doubtful curve fit.

Target: Lysine-specific demethylase 5B (Homo sapiens) (UniProt Q9UGL1)
Assay: Primary screen for KDM5B Histone Demethylases FDH-coupled qHTS; also: nearly all actives have a fitted effect of over 70% in size; as to activity change, negative = inhibition: 0% is about no effect
Conditions: FDH-coupled NADH fluorescence (FDH is formaldehyde dehydrogenase); activity change, negative = inhibition: at 57.7 µM (top of the series) unless noted
Summary of the method: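 Compound dilutions met 200 nM (final) KDM5BΔAP for 10 min at room temperature before substrate addition. The substrate mix held 12.5 µM H3K4me3 with cofactors 25 µM α-ketoglutarate and 50 µM Fe²⁺. NADH signal gain over 30 min defined activity.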
Potency is read from the fitted curve at half-maximal effect; tags tell the direction and shape of the fitted curve.

Sequence of UniProt Q9UGL1 (Q9UGL1 whole entry, looked up): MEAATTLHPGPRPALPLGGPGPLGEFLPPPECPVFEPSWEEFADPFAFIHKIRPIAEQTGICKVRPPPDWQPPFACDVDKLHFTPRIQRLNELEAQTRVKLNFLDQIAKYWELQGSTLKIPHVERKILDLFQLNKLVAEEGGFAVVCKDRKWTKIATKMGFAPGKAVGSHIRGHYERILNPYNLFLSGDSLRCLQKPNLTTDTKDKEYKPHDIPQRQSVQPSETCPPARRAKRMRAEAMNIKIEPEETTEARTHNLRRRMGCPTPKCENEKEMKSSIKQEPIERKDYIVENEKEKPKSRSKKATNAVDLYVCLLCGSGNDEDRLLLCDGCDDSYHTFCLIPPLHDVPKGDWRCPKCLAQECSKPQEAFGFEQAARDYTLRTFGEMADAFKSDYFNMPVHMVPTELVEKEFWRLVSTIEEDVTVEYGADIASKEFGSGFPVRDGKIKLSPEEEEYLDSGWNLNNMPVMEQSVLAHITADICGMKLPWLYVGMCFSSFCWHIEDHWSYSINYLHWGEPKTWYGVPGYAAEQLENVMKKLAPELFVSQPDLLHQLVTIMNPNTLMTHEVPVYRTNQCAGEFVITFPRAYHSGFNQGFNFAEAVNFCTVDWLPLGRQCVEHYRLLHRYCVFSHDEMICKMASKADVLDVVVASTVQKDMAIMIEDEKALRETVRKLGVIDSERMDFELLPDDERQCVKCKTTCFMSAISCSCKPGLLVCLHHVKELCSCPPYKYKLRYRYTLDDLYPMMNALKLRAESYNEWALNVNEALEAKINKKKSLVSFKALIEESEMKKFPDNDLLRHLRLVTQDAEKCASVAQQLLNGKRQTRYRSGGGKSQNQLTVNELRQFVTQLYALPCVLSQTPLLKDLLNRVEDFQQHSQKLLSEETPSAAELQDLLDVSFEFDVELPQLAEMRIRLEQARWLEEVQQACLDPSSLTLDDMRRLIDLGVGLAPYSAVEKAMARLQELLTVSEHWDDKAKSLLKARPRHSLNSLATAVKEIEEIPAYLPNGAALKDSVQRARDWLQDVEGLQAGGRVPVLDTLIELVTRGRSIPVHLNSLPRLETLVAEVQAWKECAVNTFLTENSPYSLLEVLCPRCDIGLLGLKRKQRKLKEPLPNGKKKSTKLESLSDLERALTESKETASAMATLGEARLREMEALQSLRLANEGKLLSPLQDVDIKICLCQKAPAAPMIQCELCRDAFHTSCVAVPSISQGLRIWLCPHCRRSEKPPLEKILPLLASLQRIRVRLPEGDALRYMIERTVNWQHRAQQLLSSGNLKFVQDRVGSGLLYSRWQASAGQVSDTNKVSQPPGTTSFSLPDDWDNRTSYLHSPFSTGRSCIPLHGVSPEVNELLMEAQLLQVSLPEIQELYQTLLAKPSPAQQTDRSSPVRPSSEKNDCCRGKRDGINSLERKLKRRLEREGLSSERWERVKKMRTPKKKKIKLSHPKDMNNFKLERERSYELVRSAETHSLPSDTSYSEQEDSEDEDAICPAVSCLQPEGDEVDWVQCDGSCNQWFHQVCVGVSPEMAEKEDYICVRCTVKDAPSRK

SMILES	Potency	activity change, negative = inhibition
COP(=O)(OC)c1nc(-c2ccco2)oc1NCc1ccccc1Cl	inconclusive: 25.1 µM [inhibitor, partial curve, poor fit]	–
COC(=O)C1=C(C)OC(N)=C(C#N)C1c1ccc(-c2ccccc2)cc1 (stereo not given)	inconclusive: 28.2 µM [inhibitor, partial curve, poor fit]	–
C[C@@H](NC(=O)c1cccnc1)c1onc(-c2ccc(F)cc2)c1C(=O)O	inconclusive: 31.6 µM [inhibitor, partial curve, poor fit]	–
Oc1c(C(c2ccc(Cl)cc2)N2CCOCC2)sc2nc(-c3ccco3)nn12 (stereo not given)	inconclusive: 25.1 µM [inhibitor, partial curve, poor fit]	–
NC(=O)C1CN(CC(=O)Nc2cccc(Cl)c2)c2ccccc2O1 (stereo not given)	inactive	–
CN1CCCCCC(O)c2cc(C(=O)N3CCN(c4ccccc4F)CC3)ccc21 (stereo not given)	inconclusive: 7.94 µM [inhibitor, partial curve, poor fit]	–
O=C(N[C@@H]1CCOC[C@H]1Oc1cccc(F)c1)c1cnc2ccccn2c1=O	active: 35.5 µM	–
Cc1cccc(Oc2nc3c(c(=O)n(C)c(=O)n3C)n2C)c1C	–	inconclusive: -43.3% [inhibitor] [at 11.5 µM]
CCOc1ccc(N/C=C/C(=O)c2ccc(-c3ccccc3)cc2)cc1	inactive	–
CN(C)S(=O)(=O)c1ccc(-c2nc(C#N)c(N3CCN(c4ccccc4)CC3)o2)cc1	inactive	–
CCc1cccc2c(C(CC(=O)N3CCCCC3)c3cccc(OC)c3)c[nH]c12 (stereo not given)	inactive	–
Cc1ccccc1-c1nn2c(=O)cc(CN3CCN(C(=O)c4ccccc4Br)CC3)nc2s1	inactive	–
O=C(Nc1oc2ccccc2c(=O)c1-c1ccc(Cl)cc1)c1ccc([N+](=O)[O-])cc1	inactive	–
COc1ccc(CCNC(=O)Cn2c(-c3cccs3)cc3cc(F)ccc32)cc1OC	inconclusive: 28.2 µM [inhibitor, partial curve, poor fit]	–
Cc1ccc(C2(C)NC(=O)N(Cc3coc(-c4cccs4)n3)C2=O)cc1 (stereo not given)	inactive	–
COC(=O)CNC(=O)C1=NOC2CN(C(=O)Nc3cccnc3)CC12 (stereo not given)	inconclusive: 89.1 µM [inhibitor, partial curve, poor fit]	–
COc1ccc(CNC(=O)CC[C@H]2CNC(=O)[C@@H]3[C@@H](CCN3Cc3ncc[nH]3)N2C)cc1	inconclusive: 15.8 µM [inhibitor, partial curve]	–
COc1ccc(NC(=O)c2oc3ccccc3c2NC(=O)c2cc(OC)c(OC)c(OC)c2)cc1	inconclusive: 15.8 µM [inhibitor, partial curve, poor fit]	–
CCSc1nc(N2CCCCC2)c2c3c(sc2n1)COC(C)(CC)C3 (stereo not given)	inactive	–
CN(C(=O)Cn1c2c(c(=O)n1Cc1ccccc1)CCN(Cc1ccccc1)C2)c1ccccc1	inconclusive: 35.5 µM [inhibitor, partial curve, poor fit]	–

SMILES	Potency	activity change, negative = inhibition
COc1cc(NC(=O)c2ccc3c(c2)N(C)C2CCCCCN2C3=O)cc(OC)c1OC (stereo not given)	inconclusive: 31.6 µM [inhibitor, partial curve, poor fit]	–
CCOC(=O)c1[nH]c2ccc(C)cc2c1NC(=O)CNC	inconclusive: 28.2 µM [inhibitor, partial curve, poor fit]	–
COc1ccccc1N1CCCc2ncc(C(=O)NCCc3c[nH]c4ccccc34)cc21	active: 28.2 µM	–
N#Cc1cccnc1N1CCN(C(C(=O)O)c2c[nH]c3cc(CO)ccc23)CC1 (stereo not given)	inconclusive: 31.6 µM [inhibitor, partial curve, poor fit]	–
CC1=C(C(=O)N2CCOCC2)C(c2cc(Br)ccc2F)C2=C(CCCC2=O)N1 (stereo not given)	inconclusive: 28.2 µM [inhibitor, partial curve, poor fit]	–
CC(=O)Oc1ccc2c(C)c(CC(=O)Nc3ncc(C)s3)c(=O)oc2c1	inactive	–
CN1/C(=C/C(=O)COC(=O)c2cc3c(s2)CCC3)C(C)(C)c2ccccc21	inconclusive: 25.1 µM [inhibitor, partial curve, poor fit]	–
CCCNC(=O)NC1=C(C#N)C(C)(C)Cc2ccccc21	inconclusive: 25.1 µM [inhibitor, partial curve, poor fit]	–
COc1ccccc1-c1cnc(Nc2ccc3c(c2)OCCO3)c2c1CCO2	active: 35.5 µM	–
Fc1ccc(CN2CC(Oc3ccc4c(c3)OCO4)C2)cc1	inconclusive: 39.8 µM [inhibitor, full curve, poor fit]	–
CCC(C)n1c(=N)c(S(=O)(=O)c2ccccc2)cc2c(=O)n3ccccc3nc21 (stereo not given)	inconclusive: 31.6 µM [inhibitor, partial curve, poor fit]	–
Cc1nn(C)c2c1c(-c1ccccc1)cc(=O)n2CC(=O)NC(C)(C)C	inconclusive: 17.8 µM [inhibitor, partial curve, poor fit]	–
Cc1cc(OCC(=O)NCCCN2CCOCC2)c2c(C)c(C)c(=O)oc2c1	inconclusive: 25.1 µM [inhibitor, partial curve, poor fit]	–
CS(=O)c1ccc(C(=O)Nc2ccc(N3CCOCC3)cn2)cc1 (stereo not given)	inconclusive: 39.8 µM [inhibitor, single point]	–
Cc1ccc(C)c(N=Cc2ccc([N+](=O)[O-])cc2)c1	inconclusive: 22.4 µM [inhibitor, partial curve, poor fit]	–
CCOc1ccc(N2CC(NC(=O)C(CC)CC)CC2=O)cc1 (stereo not given)	inactive	–
Cc1ccc(NC(=O)Cn2c(=O)nc(-c3ccccc3F)c3cc(Cl)ccc32)c(Br)c1	inconclusive: 35.5 µM [inhibitor, partial curve, poor fit]	–
N#Cc1cccc(C(=O)N2CC(COc3ccccc3)C3(C2)CN(c2ccccc2)C3)c1 (stereo not given)	active: 35.5 µM	–
CCCc1noc(-c2ccn3c(CNC(=O)c4ccccn4)nnc3c2)n1	inconclusive: 3.16 µM [inhibitor, partial curve, poor fit]	–
CCOC(=O)c1ccccc1NC(=O)CSc1ncc2c(n1)-c1ccccc1N(CC)S2(=O)=O	inconclusive: 31.6 µM [inhibitor, partial curve, poor fit]	–
